Consider 1 molecule from paper PMC3681933.

These are yes or no findings as the source states them, for the method shown. In cells and extracts the contact can be indirect. Some results given as binding are weak or reduced against the parent protein; the word gives no strength. Where a sequence is shown, tags or fusion partners need not be part of it.

The assay deals with T1, GST-Boi2-C (aa 459-1040) (S. cerevisiae) (UniProt P39969).
T1 sequence: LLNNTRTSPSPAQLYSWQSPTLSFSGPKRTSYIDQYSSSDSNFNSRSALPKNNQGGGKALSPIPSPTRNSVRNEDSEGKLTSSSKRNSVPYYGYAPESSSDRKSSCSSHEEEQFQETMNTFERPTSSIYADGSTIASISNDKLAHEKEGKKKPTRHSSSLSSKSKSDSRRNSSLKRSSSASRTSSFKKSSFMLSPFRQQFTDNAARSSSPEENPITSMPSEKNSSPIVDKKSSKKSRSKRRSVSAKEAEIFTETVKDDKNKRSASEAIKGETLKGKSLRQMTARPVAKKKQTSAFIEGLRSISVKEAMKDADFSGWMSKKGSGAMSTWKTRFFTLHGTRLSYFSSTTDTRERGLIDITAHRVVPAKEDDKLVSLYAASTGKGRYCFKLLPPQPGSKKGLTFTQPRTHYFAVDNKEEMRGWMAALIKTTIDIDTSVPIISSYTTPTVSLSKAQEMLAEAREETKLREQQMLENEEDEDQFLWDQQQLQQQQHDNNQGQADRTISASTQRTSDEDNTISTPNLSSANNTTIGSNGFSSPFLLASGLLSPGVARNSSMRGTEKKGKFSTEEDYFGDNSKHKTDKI
Briefly: pull-down; GST or GST fusions induced with 2% galactose for 4 h in yeast co-expressing 3HA-Msb1 (strains YEF473A wild type or YEF1395 msb1Δ, endogenous BOI1 and BOI2 present); glutathione-Sepharose beads from Triton X-100-solubilized cell lysates; anti-HA blot.

B1: Msb1 tagged with three copies of HA at its N-terminus (protein, UniProt P21339 1-1137)
chain: MNDMAKPLPTPPTAEIRKSRSNSPKKAQKTNLSPNKNQNNEKNVPRSNGRTKNEHNSMDDEEFEFFHQFSREKVKGVIHVITAELKEKGPDVEFLMIPFRPEQTNDKLLTLLNQLFPLGNGQPVNEKKQLRIVSKADVWTLFQCLKYIWCRLPNSEIIGWKSYLEFKFREEDKKFPRKSFLEIMPQCLASPNHASIVYDFFDLIISISSNSRVNKMSARKISKMCAIWAFSKQIPNSDIQDYDFESAAMKSFAPNNSIQDGLDQWIPASDAMFHLLLAFLRSFVPQDLESAKLPRTLKSLLFNNQYPPRKSTAYTSETILTIPLVTLKTDVFSRKPWQLLERCNDLLDFSDHDAFEAREDYALLKSLFRKKNTVEGISRKMSQESRRLMKAMSTKHSTFQPGWAPRECIENISHLKECIEVKRLDIDDYFIWTWLSSLSFEQTSEKKKIFGRSIILEFEFDGFKKWVVFQECDITLDYNKKGQLKKKTSAQSPTTEKELPPDDFELEDPPLSKSPTLSQTYKKFQAEVPQQSTVRRDSAPDNQGIYHTVISKNALTKNKHNVNLHSFEHKISKWNPLNNLRKKSGSNSSSSSFEEKSKDAPIREEYHTNKNHKSKKEERVLSQFSTLNPDEYQLPVIETGSSNFKIEIPELMYEHDDDDSDKLKNSQKRATDSAIEELNGMVEEMMINEPDDVKISITEAETFESLTKFDQYKPSNITDDDLQSSHSSAVHSLKLSTNTNDSCADSSKYTADRKLAEPRKISEESKVNDDSSSYYSPNINNLPASRMPSQPTYSNSDSKKAFTNESRLNVLQGAVSPSQQVTPKPYKNAPGDCVSPVQQKYYQNDRRNEMSPASAPVPPSAYSPARSPQFSTNSAGFKQNTINVPVGYNDPAHVLANQPHMTYRDQHNYPSHQQKQRPFQNNIVPPELKSRNQRADASPIPQHMVPVKQGVPNLPSNVPLYQQMERMNPNHQHPVNTYKVTQPPYHNNTTNAYGNSRAGNAHMLDGKWSNNPPQMVPKGVRPNQYPQQHVNRYSPQAQPVVPAEYYNGPPPMRAPPMMSHMVPAQEPIRYTAGANRRSFPQGMQQNAYSVPAQPMGAVNSEFYLPEAPQGNKLHGNINKRQERKKLYDNIRSGNFGI
As to B1, the binding entry was “binds”.
